Source: the supplement of paper PMC4967469
Lines with a small IC50 respond at low doses; where the fit passes the top or lowest dose, that dose stands as a limit. AUC, from the same fit, is the share of area under the viability curve across the 256-fold dose range: 1 means no effect, lower means more sensitive. For part of these data: Where the top dose is marked as inferred, it is not printed in the source and was worked back from the curve model. For part of these data: Drugs with an entry number were screened twice under separate entries, and the two screens often disagree.

Key:
Assay in all cases: Viability of human cancer cell lines after 72 h of drug (GDSC screen)
SB-505124 = compound: Cc1cccc(-c2[nH]c(C(C)(C)C)nc2-c2ccc3c(c2)OCO3)n1 [SB-505124]; details: top dose 10 µM; top dose inferred
Procedure: (§1)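 Human cancer cell lines in 384-well plates, medium with 10% serum, drug for 72 h over a 256-fold dose range (nine 2-fold or five 4-fold steps up to the top dose). Adherent lines were fixed and stained with the nucleic acid dye Syto60, suspension lines read with resazurin; signal relative to control wells, capped at 0 and 100%. One two-parameter sigmoid per drug and line, fitted in a mixed model over all curves with the slope shared within a line.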

UNC0638 = compound: COc1cc2c(NC3CCN(C(C)C)CC3)nc(C3CCCCC3)nc2cc1OCCCN1CCCC1 [UNC0638]
Procedure: as §1

PI-103 = compound: Oc1cccc(-c2nc(N3CCOCC3)c3oc4ncccc4c3n2)c1 [PI-103]; details: top dose 10.24 µM
Procedure: as §1

GSK690693 = compound: CCn1c(-c2nonc2N)nc2c(C#CC(C)(C)O)ncc(OC[C@H]3CCCNC3)c21 [GSK690693]; details: top dose 10.24 µM; top dose inferred
Procedure: as §1

BX-795 = compound: O=C(NCCCNc1nc(Nc2cccc(NC(=O)N3CCCC3)c2)ncc1I)c1cccs1 [BX-795]; details: top dose 5 µM; top dose inferred
Procedure: as §1

Tretinoin = compound: CC1=C(/C=C/C(C)=C/C=C/C(C)=C/C(=O)O)C(C)(C)CCC1 [Tretinoin]; details: top dose 10 µM; top dose inferred
Procedure: as §1

[1] = top dose 20 µM, screen: GDSC drug entry 1236, top dose inferred
[2] = top dose 40 µM, screen: GDSC drug entry 245

Cell Line	AUC (SB-505124)	IC50 (SB-505124)	AUC (UNC0638; [1])	IC50 (UNC0638; [1])	AUC (UNC0638; [2])	IC50 (UNC0638; [2])	AUC (PI-103)	IC50 (PI-103)	AUC (GSK690693)	IC50 (GSK690693)	AUC (BX-795)	IC50 (BX-795)	AUC (Tretinoin)	IC50 (Tretinoin)
CP50-MEL-B (melanoma, adherent)	0.986	> 10 µM	0.816	10.9 µM	0.784	16.8 µM	0.871	9.44 µM	0.985	> 10.2 µM	0.909	> 5 µM	0.879	> 10 µM
CS1 (bone, adherent)	0.967	> 10 µM	0.792	10.2 µM	0.759	15.5 µM	0.246	0.107 µM	0.893	> 10.2 µM	0.819	3.28 µM	0.984	> 10 µM
Ca9-22 (head and neck, adherent)	0.96	> 10 µM	0.854	13.9 µM	0.936	> 40 µM	0.645	1.56 µM	0.984	> 10.2 µM	0.821	2.62 µM	0.981	> 10 µM
Ca-Ski (cervix, adherent)	0.962	> 10 µM	0.71	5.29 µM	0.688	9.05 µM	0.142	0.0404 µM	0.58	1.09 µM	0.864	> 5 µM	0.979	> 10 µM
CaR-1 (large intestine, adherent)	0.975	> 10 µM	0.975	> 20 µM	0.931	> 40 µM	0.743	4.64 µM	0.978	> 10.2 µM	0.866	> 5 µM	0.965	> 10 µM
Calu-3 (lung adenocarcinoma, adherent)	0.98	> 10 µM	0.955	> 20 µM	0.909	> 40 µM	0.922	> 10.2 µM	0.91	> 10.2 µM	0.919	> 5 µM	0.961	> 10 µM
Caov-4 (ovary, adherent)	0.973	> 10 µM	0.976	> 20 µM			0.81	8.82 µM	0.98	> 10.2 µM	0.971	> 5 µM	0.959	> 10 µM
Capan-2 (pancreas, adherent)	0.908	> 10 µM	0.836	17.5 µM	0.919	> 40 µM	0.705	2.78 µM	0.889	> 10.2 µM	0.928	> 5 µM	0.972	> 10 µM
D-392MG (glioma, adherent)	0.978	> 10 µM	0.895	> 20 µM	0.835	> 40 µM	0.743	4.19 µM	0.963	> 10.2 µM	0.84	> 5 µM	0.951	> 10 µM
D-423MG (glioma, adherent)	0.978	> 10 µM	0.821	15.1 µM	0.753	16.1 µM	0.429	0.391 µM	0.853	> 10.2 µM	0.732	1.68 µM	0.974	> 10 µM
D-542MG (glioma, adherent)	0.981	> 10 µM	0.845	19.6 µM	0.943	> 40 µM	0.818	7.52 µM	0.984	> 10.2 µM	0.925	> 5 µM	0.984	> 10 µM
D-566MG (glioma, adherent)	0.874	9.52 µM	0.873	18.7 µM	0.842	27.6 µM	0.558	0.921 µM	0.962	> 10.2 µM	0.733	1.43 µM	0.908	> 10 µM
DAN-G (pancreas, adherent)	0.991	> 10 µM	0.851	12.4 µM	0.871	29.7 µM	0.489	0.599 µM	0.983	> 10.2 µM	0.92	> 5 µM	0.99	> 10 µM
DBTRG-05MG (glioma, adherent)	0.971	> 10 µM	0.961	> 20 µM	0.759	16.2 µM	0.789	5.41 µM	0.947	> 10.2 µM	0.881	> 5 µM	0.964	> 10 µM
DK-MG (glioma, adherent)	0.975	> 10 µM	0.792	14.5 µM	0.815	37.3 µM	0.662	2.26 µM	0.978	> 10.2 µM	0.721	1.84 µM	0.978	> 10 µM
DMS-273 (small cell lung carcinoma, adherent)	0.983	> 10 µM	0.816	12 µM	0.766	15.5 µM	0.229	0.0984 µM	0.555	0.911 µM	0.869	> 5 µM	0.95	> 10 µM
